Laboratory results reported in article PMC9911399, “Two distinct binding modes provide the RNA-binding protein RbFox with extraordinary sequence specificity”.
Where a chain is given by its changes, count along the chain named. This is one part of the list.

T1: RBFOX1 RRM (Homo sapiens, UniProt Q9NWB1 109-208)
T1 sequence: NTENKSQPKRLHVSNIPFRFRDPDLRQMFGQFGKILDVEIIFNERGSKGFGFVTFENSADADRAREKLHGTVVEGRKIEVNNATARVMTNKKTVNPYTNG

B1: UAACCAA (DNA:RNA)
RNA: GGGAGACCGGAAUUCAGAUUGUCCUAACCAAUUAAAUCCCGUCGUAGCCACCA
DNA 1: CAATCTGAATTCCGGTCTCCC
DNA 2: TGGTGGCTACGACGGGATT
B2: UCGCUAU (DNA:RNA)
RNA: B1 RNA with A26C, A27G, C29U, A31U
DNA 1: CAATCTGAATTCCGGTCTCCC
DNA 2: TGGTGGCTACGACGGGATT
B3: CGCCAAU (DNA:RNA)
RNA: B1 RNA with U25C, A26G, A27C, C29A, A31U
DNA 1: CAATCTGAATTCCGGTCTCCC
DNA 2: TGGTGGCTACGACGGGATT
B4: UAAUGAC (DNA:RNA)
RNA: B1 RNA with C28U, C29G, A31C
DNA 1: CAATCTGAATTCCGGTCTCCC
DNA 2: TGGTGGCTACGACGGGATT
B5: GCGAAUG (DNA:RNA)
RNA: GGGAGACCGGAAUUCAGAUUGUCCGCGAAUGUUAAAUCCCGUCGUAGCCACCA
DNA 1: CAATCTGAATTCCGGTCTCCC
DNA 2: TGGTGGCTACGACGGGATT
B6: GUCUGGA (DNA:RNA)
RNA: B5 RNA with C26U, G27C, A28U, A29G, U30G, G31A
DNA 1: CAATCTGAATTCCGGTCTCCC
DNA 2: TGGTGGCTACGACGGGATT
B7: UCAAGUA (DNA:RNA)
RNA: B5 RNA with G25U, G27A, A29G, G31A
DNA 1: CAATCTGAATTCCGGTCTCCC
DNA 2: TGGTGGCTACGACGGGATT
B8: UUGUGGA (DNA:RNA)
RNA: B1 RNA with A26U, A27G, C28U, C29G, A30G
DNA 1: CAATCTGAATTCCGGTCTCCC
DNA 2: TGGTGGCTACGACGGGATT
B9: CUUGGAG (DNA:RNA)
RNA: B5 RNA with G25C, C26U, G27U, A28G, A29G, U30A
DNA 1: CAATCTGAATTCCGGTCTCCC
DNA 2: TGGTGGCTACGACGGGATT

molecular target: T1, RBFOX1 RRM; assay: EMSA; HiTS-Eq, 1 nM pool, 10 min; buffer printed only for the single-RNA assays: 10 mM Tris pH 7.5, 150 mM NaCl, 3.4 mM EDTA, 0.001% NP-40, 30 C; conditions: tags: His6 N-terminal (pET28a); label: 5' 32P
Summary of the method: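 Purified RbFox RRM, wild type or mutant, was incubated for 10 min in 50 µL with 1 nM of a 5′-radiolabelled RNA pool carrying 7 randomized nucleotides, whose flanks were annealed to DNA oligonucleotides, over a series of increasing protein concentrations. Unbound RNA was resolved on 8% native PAGE, cut out, reverse-transcribed, barcoded by PCR and sequenced on an Illumina HiSeq 2500. Relative association constants were derived from changes in read counts for each RNA species versus the control reaction and normalised to the cognate motif.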

Row | Binder | binding signal
1 | B1 | 0.00237 KA relative to UGCAUGU
2 | B2 | 0.00784 KA relative to UGCAUGU
3 | B3 | 0.00313 KA relative to UGCAUGU
4 | B4 | 0.00631 KA relative to UGCAUGU
5 | B5 | 0.0369 KA relative to UGCAUGU
6 | B6 | 0.00931 KA relative to UGCAUGU
7 | B7 | 0.00328 KA relative to UGCAUGU
8 | B8 | 0.00599 KA relative to UGCAUGU
9 | B9 | 0.00989 KA relative to UGCAUGU
